Measurements reported in publication PMC11015131.
Substitutions are numbered along the chain they refer to. Results are given in words; binding and its absence hold for the method and conditions named. In cells and extracts the contact can be indirect. Some binding calls cover weakened binding; strength is not graded here. Sequences can lack the tags named with a protein. Each block holds one binder with its values, some of them ahead of it.

Legend:
[1] = target: T1, Mrh5-Myc (endogenously tagged DEAD-box protein Mrh5) (S. pombe) (UniProt O74356); assay: co-IP; anti-Myc beads, Mrh5-Myc as bait; mitochondrial extracts of WT cells with endogenously tagged subunits; immunoblot
T1 sequence: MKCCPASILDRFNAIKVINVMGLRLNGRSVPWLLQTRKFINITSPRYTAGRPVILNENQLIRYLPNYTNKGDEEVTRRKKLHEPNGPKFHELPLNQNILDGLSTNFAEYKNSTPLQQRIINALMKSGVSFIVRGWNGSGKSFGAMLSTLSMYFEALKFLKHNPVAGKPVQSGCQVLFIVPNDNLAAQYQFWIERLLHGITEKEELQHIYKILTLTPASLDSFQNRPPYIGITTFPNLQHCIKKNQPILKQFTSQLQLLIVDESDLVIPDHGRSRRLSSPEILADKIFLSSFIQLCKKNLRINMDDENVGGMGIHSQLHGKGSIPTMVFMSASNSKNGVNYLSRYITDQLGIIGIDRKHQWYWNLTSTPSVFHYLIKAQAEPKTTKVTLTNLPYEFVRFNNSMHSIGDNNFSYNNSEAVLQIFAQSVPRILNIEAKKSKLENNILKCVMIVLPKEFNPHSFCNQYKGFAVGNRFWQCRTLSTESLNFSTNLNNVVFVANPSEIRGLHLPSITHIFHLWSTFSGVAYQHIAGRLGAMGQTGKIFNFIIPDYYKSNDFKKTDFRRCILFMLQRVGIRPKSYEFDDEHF

[2] = target: T2, Sls1-FLAG (endogenously tagged Sls1) (S. pombe) (UniProt Q9UT03); assay: co-IP; anti-FLAG beads, Sls1-FLAG as bait; mitochondrial extracts of WT, Δmrh5, Δppr4 and Δmrh5Δppr4 cells with endogenously tagged subunits; immunoblot with anti-tag Abs
T2 sequence: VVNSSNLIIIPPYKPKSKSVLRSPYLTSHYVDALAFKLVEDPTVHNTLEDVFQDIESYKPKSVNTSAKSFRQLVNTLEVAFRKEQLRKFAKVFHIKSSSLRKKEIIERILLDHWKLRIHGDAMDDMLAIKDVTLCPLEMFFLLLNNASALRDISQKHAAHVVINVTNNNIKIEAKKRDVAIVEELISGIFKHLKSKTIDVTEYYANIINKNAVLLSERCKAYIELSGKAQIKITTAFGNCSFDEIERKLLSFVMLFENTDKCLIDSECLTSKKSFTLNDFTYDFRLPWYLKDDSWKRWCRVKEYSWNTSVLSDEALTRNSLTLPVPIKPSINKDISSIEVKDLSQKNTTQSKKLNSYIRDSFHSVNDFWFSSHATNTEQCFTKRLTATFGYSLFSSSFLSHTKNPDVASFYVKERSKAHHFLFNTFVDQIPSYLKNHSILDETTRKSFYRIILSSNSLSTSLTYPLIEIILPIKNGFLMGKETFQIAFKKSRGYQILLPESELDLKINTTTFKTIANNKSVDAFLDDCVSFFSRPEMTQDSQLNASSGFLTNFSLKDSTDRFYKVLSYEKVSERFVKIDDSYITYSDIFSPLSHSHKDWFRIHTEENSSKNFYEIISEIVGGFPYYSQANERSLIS

[3] = target: T3, Mrh5-Myc (mrh5-Myc integrated at the leu1-32 locus of the Δmrh5 strain) (S. pombe) (UniProt O74356); assay: co-IP; anti-Myc co-immunoprecipitation; mitochondrial extracts of Δmrh5 cells with integrated mrh5-Myc, mrh5^D261A-Myc or mrh5^E262A-Myc and Mtf2-HA, Sls1-HA or Ppr4-HA; immunoblot with anti-Myc and anti-HA Abs
T3 sequence: T1 sequence

[4] = target: T4, Mrh5^D261A-Myc (S. pombe) (UniProt O74356); assay: as above
T4 sequence: T1 sequence with D261A

[5] = target: T5, Mrh5^E262A-Myc (S. pombe) (UniProt O74356); assay: as above
T5 sequence: T1 sequence with E262A

- binding [1]: binds
- binding [2]: binds
- binding [3]: binds
- binding [4]: no binding
- binding [5]: no binding
B1: Mtf2-HA (endogenously tagged Mtf2) (protein, UniProt O14204 1-314)
chain: MRVCRTLKISIKSFPSSLSLLSLYKRRLHKSTSHSSTATSSHYSKNNLPSDSPDLLFDYFIDGHKIHVNPNAVEPLHLRRNADVVGFSLPHGVKQSFENYIQKYPLSDQVENSSNIYDPSSPPDSPRKQQTHLGTIPPEHPDVFFHNLKKKLDSLHTHSSPLTVYRNHLLTCETDSALAQLFKSEIYQQLSDFRRDFPLSHALRDTMLIARLNFLNPMLALSFFQAVKKHSPNAYVRGCSAPVYNQAILSVWQGCKDPNFVLHLLGEMRENVVMRDSETREAINIVYKDVNEWPKQLLFSQNRILEKLKIFLLP

- binding [4]: no binding
- binding [5]: no binding
B2: Ppr4-HA (endogenously tagged Ppr4) (protein, UniProt O14275 17-931)
chain: NTPLLWFPQPLKYWPAFQQSHTFNSMSVFKNDNAIANQTTVNESDVKRNVEKINDIYECSNNTKSPCFPNSDSRIPLVNWKTSTNPTLQVRAYMLDLLLPFFTLDLLPFLNKVCECCNHMLLDNPKIKQDLPFAFCYLFSSYFSYKSSRQYTCSSEEISKVFRHLNRLGGSEYVLHLFAQIPKALCKELTDVRTLNHPLRSIFTFCFKNISNPPNLLKLLTKLYPRSDRANEVLYTQYLGFLTKRGDYQIAIYMFDEMYRTHHWSSFTACRLMIESLVRQNKFEEAISLYKKIIAKRPKIARDKKILNLLLYISTVSNRSPDAFKLALQSISNANQIPSFDVFSRLMSALVKYNMTEMILPLVKQYDHKFRNLYSPNIFLSIVQALVFCGDMVNIQRWYNMSRVNSELSRIKHLLNCFLNSSTVSLDVSMVLELLRDLKKKKIKVDERTLVICITIFSRRKDLFAMEKIHQYFSDQGIKTSNQAYAALLDAYIEAEDTEKIELYLGKIRRLGITEDVSINRMLMRLALDRLDWDLLEQCTKVAERKDPEGQDYLSTITMLYHVRQHELNLALRIFSGIQKPNVVHYSIAATVLGNLNQLDQLLLLEKRMESEGKAPTALSLVAFVSSYCKQGAEGLDEAKRYMSKNFQPDKRALLFNPRTANDMTYPPSLFSSLIKEYTSLGDIKEAKQVLSTYLEYFSKNITSKPDIPFAIASMRLYCSLHDTVLSRQFWDLILQVAQQNFITTDIAAVVDDKNIPSPSGVIPAYKSALNVAAETYFSFLASVNSFQELDQEWSRLEKLGFEYDDSLQNKRIIWLLYDDRLDAAIKRVYNIFLSSKRIEELIPDASSQNSIISFFLSPDSPLYFSTLKALRDKLDMAVEDDFVRISQGILVPTVKYLQTIRRDNEILFNLLAKV

- binding [4]: no binding
- binding [5]: no binding
B3: Sls1-HA (endogenously tagged Sls1) (protein, UniProt Q9UT03 42-677)
chain: T2 sequence
